Molecules are shown by their SMILES. Several values for one entry are separate records, joined by “and”; a condition that tells them apart may be missing. Identical values can stand only once. In all, about 13,000 compounds were measured (“IFI”: median about 4, highest 2% from about 17 on). Some of the results follow.

This assay in a line: GSK_TCMDC: Inhibition Frequency Index (IFI). The number of non-kinase HTS assays where a compound showed > 50 % inhibition, expressed as a percentage of the number of such assays in which the compound was tested (-0 is zero). The class given is functional.
Compound `Cc1nc(-c2nc(NCc3ccc4c(c3)OCO4)ncc2-c2ccsc2)sc1C` displayed an IFI of 6.67%.
Consider `CC(=O)N(C)c1cccc(C(=O)Nc2cccc(-c3ccc(-c4nc5cc(C(F)(F)F)ccc5[nH]4)cc3)c2)c1`, for which the IFI was determined as 7.02%.
Then `CC(C)Cn1c(Sc2ccc(C#N)c([N+](=O)[O-])c2)nnc1-c1cccs1`, with 2.8%; and `O=C(Nc1ccc(F)c(C(F)(F)F)c1)N[C@H]1CCN(CCCCCNC(=O)C2CC2c2ccc(Cl)c(Cl)c2)C1` (stereo not given in full), with 15.9%.
As for `CCc1cn(C)c2c(N3CCCC3=O)cc(C(=O)N[C@@H](Cc3ccccc3)[C@H](O)CNC3CCCCC3)cc12`, the figure is -0%; as for `COc1ccc(CN2CCC(CN3CC4(OC3=O)c3ccccc3-c3ccccc34)C2)c(O)c1` (stereo not given), 5.56%; as for `COc1ccccc1-n1ccnc1SCC(=O)Nc1cc(C(F)(F)F)ccc1Cl`, 5.26%.
In turn, `CC(=O)c1ccc(NC(=O)C2c3ccccc3C(=O)N(CC(C)C)C2c2cccs2)cc1` (stereo not given) yielded an IFI of -0%.
For `CCCN1CCN(CCCNc2c3ccccc3nc3ccccc23)CC1`, the IFI was found to be 2.96%.
For the compound `COc1cc(OC)cc(-c2nc3ccc(OCCN(C)C)c(C#N)c3[nH]2)c1`, the IFI was 3.03%.
Then `COc1ccc(CC(=O)Nc2ccc(Nc3nc(C)cc(N(C)C)n3)cc2)cc1`, with 3.92%.
`CC(=O)Nc1ccc(OCCCN(Cc2ccccc2OC(F)(F)F)c2ccc(C(F)(F)F)c(C#N)c2)c(Cl)c1` returned an IFI of 0%.
`CCCS(=O)(=O)c1nc(S(=O)(=O)c2ccc(Cl)cc2)c(N2CCCCC2)s1` yielded an IFI of 6.52%.
As for `CO/C(=C\C=C\c1cc2cc(Cl)c(Cl)cc2[nH]1)C(=O)Nc1ccc(NCCN(C)C)nc1`, the figure is 9.92%; as for `O=C(C=Cc1ccc(Cl)c(Cl)c1)NCCCCCN1CCCC(CCCNS(=O)(=O)c2cccc(C(F)(F)F)c2)C1` (stereo not given), 12.9%.
Then `COc1ccc(C(=O)N[C@@H](CC(C)C)C(=O)NC2CC[C@@H](C)N(C(=O)Nc3ccc(Cl)cc3)CC2=O)cc1OCCN1CCOCC1` (stereo not given in full), with 6.25%; and `C[C@H](NC(=O)c1c(OC2CN(C(c3ccccc3)c3ccccc3)C2)c(-c2ccccc2)nc2ccccc12)C1CCCCC1`, with 1.52%; and `O=C(NCC1COc2ccccc2O1)c1cnc2c(c1)nc(-c1c[nH]c(-c3ccccc3)n1)n2CCSCc1c(F)cccc1Cl` (stereo not given), with 1.5%.
Then `CCn1c(C(C)C)cc2c3c(N)nc(N)nc3ccc21`, with 2.88%.
In turn, `CS(=O)(=O)c1cccc(-c2cnc3[nH]cc(-c4cccc(CCN)c4)c3c2)c1` came in with an IFI of 8.74%.
Then `CC(C)(C)c1ccc(CNCC(C)(C)c2nc(-c3ccnc(N)n3)c(-c3ccc(Cl)c(O)c3)[nH]2)cc1`, with 17.1%.
With `COc1ccc2nccc([C@@H](O)CN3CCC(NCc4cc5ccccn5n4)CC3)c2c1`, the IFI was determined as 1.46%.
`COc1ccc2nccc([C@@H](O)CN3CCC(NC(=O)/C=C/c4c[nH]c5c(C)cccc45)CC3)c2c1` showed an IFI of 0.69%.
Then `CC[C@H](C)CNC(=O)c1ccc(-c2cccc(CN3CCC(N4CCCC4)CC3)c2)nc1`, with -0%.
`CCN1CCN(CCCNc2c3ccccc3nc3ccccc23)CC1` displayed an IFI of 3.03%.
Then `O=[N+]([O-])c1nc(Br)n(Cc2ccc(Cl)cc2)n1`, with 5.26%; and `N=C(N)NN=CC(=O)Nc1cccc(C(F)(F)F)c1`, with -0%.
As for `COc1ccc2nccc([C@@H](O)CN3CCC(NC(=O)c4cc5cccnc5[nH]4)CC3)c2c1`, the figure is 1.4%.
Then `CC(C)(C)[C@@H](Nc1ccc(C#N)c2ccccc12)C(=O)NC1(Cc2ccc(O)c(Br)c2)CCCC1`, with 0%.
`O=C(Nc1cccc(Oc2ccccc2)c1)N[C@H]1CCN(Cc2ccc(OCCCN3CCCCC3)cc2)C1`: the IFI turned out to be 9.22%.
Then `CC(C)CNCc1cccc(-c2ccc(CN(CCCN3CCN(C)CC3)C(=O)CCC3CCCC3)cc2)c1`, with 7.48%; and `COc1ccc(NC(=O)/C=C/c2ccccc2Cl)cc1OCCN1CCC(O)(c2ccc(Cl)c(C(F)(F)F)c2)CC1`, with 5.63%.
Then `COc1ccc(OCCCN2CCN(CC(c3ccc(F)cc3)N3CCN(C(C)C)CC3)CC2)c2ccccc12` (stereo not given), with 7.84%; and `Nc1c2ccccc2nc2ccc(-c3ccccc3)cc12`, with 12.8%; and `N#Cc1ccc(Cn2ccc3c4c(N)nc(N)nc4ccc32)cc1`, with 5%.
As for `CN(C)CCCOc1ccc(-c2csc(NC(=N)NCc3ccccc3)n2)cc1`, the figure is 8.45%; as for `Cc1cc(=NN=Cc2ccccc2F)c2cc(F)ccc2[nH]1`, -0%; as for `CCN(CC)c1ccc2nc(N)nc(N)c2c1`, 7.26%.
Take `O=C(Nc1cccnc1)c1cc(-c2cc(Cl)ccc2O)n[nH]1`: the IFI came to 1.45%.
Then `COc1c(C(=O)NC2CCN(Cc3ccccc3)C2)cnc2ccccc12` (stereo not given), with 0.75%.
As for `CS(=O)(=O)Nc1ccc2[nH]cc(C3CCN(CCCCCNC(=O)/C=C/c4ccc(Cl)c(Cl)c4)CC3)c2c1`, the figure is 2.96%; as for `Cc1cccn2c(=O)c3cc(C(=O)NCCc4ccccc4)c(=N)n(CCCOC(C)C)c3nc12`, 4.3%; as for `CN(Cc1cccc(C#N)c1)C1CCN(c2cc(NC(=O)c3cccc(F)c3)ccn2)CC1`, -0%.
As for `CCc1ccc(CN2CCC(C(=O)Nc3ccc(-c4nc5ccccc5[nH]4)cc3)CC2)o1`, the figure is 4.55%.
`C=CCN1C(=O)CN(S(=O)(=O)c2ccc(-n3nc(C)cc3C)cc2)C1=S`: the IFI was 0.71%.
As for `COc1ccc(CN(C)CCCOc2ccc(NC(=O)c3cccc4c(=O)c5cccc(C)c5[nH]c34)cc2)cc1OC`, the figure is 3.15%; as for `COc1cc(Cc2cnc(N)nc2N)cc(OCCCC(=O)O)c1OC`, 0%.
The compound `CC(=O)Nc1ccc(CN2CCN(C(c3ccc(F)cc3)c3ccc(F)cc3)CC2)cc1` showed an IFI of -0%.
Then `O=C(NC1CCN(Cc2ccccc2)CC1)c1csc2nc(-c3ccc(Cl)cc3)cn12`, with 4.85%.
Then `CC(C)N1CCC(NC(=O)N2CCCN(c3ncnc4cc(-c5ccccc5)sc34)CC2)CC1`, with 1.96%; and `CCCCOc1cc(C)nc2ccc(NC(=O)COCC(=O)Nc3ccc4nc(C)cc(OCCCC)c4c3)cc12`, with 5.84%; and `COc1ccc(C(C(=O)NC2CCN(C[C@H](O)c3ccnc4ccc(OC)cc34)CC2)N2CCN(c3ccc([N+](=O)[O-])cc3)CC2)cc1` (stereo not given in full), with 0.69%.
Then `COc1ccc(NC(=O)Nc2cc(C)nc3ccccc23)cc1Cl`, with 5.56%; and `CCCOc1cc(OCCC)cc(-c2ccc(C(=O)Nc3ccc4ccc(C)nc4c3)c(=O)[nH]2)c1`, with 0%.
In turn, `CCCCN1C(=O)C2CC(=O)CC(C3CCCCC3)C2C1=O` (stereo not given) came in with an IFI of 0%.
Then `Cc1ccc(C(=O)Nc2ccc(C)c(OC3CCN(CCC(C)C)C3)c2)cc1` (stereo not given), with 1.64%; and `O=C(Nc1cccc([N+](=O)[O-])c1)Nc1cccc(C(F)(F)F)c1`, with 12.4%; and `OC(CNc1ccnc(Nc2cccc(OCCCN3CCOCC3)c2)n1)c1ccccc1` (stereo not given), with 10.2%.
Take `COc1ccc2ncc(F)c(CCN3CCC(NCc4cc(Br)c5c(c4)OCCO5)CC3)c2n1`: the IFI turned out to be 8.49%.
Then `COc1ccc2nc(-c3cccc(C)n3)nc(Nc3ccncc3)c2c1`, with 1.53%; and `Nc1ccc2c(N)c3ccccc3nc2c1`, with 2.96%; and `Cc1ccc2nc(-c3ccc(C(=O)NC4CCN(Cc5ccccc5)CC4)s3)[nH]c2c1`, with 2.29%.
As for `CC1CCCC(NCc2c(O)ccc3ccccc23)C1` (stereo not given), the IFI was determined as 1.52%.
Then `COc1ccc(Cc2cnc3nc(N)nc(N)c3c2C)cc1`, with 2.9%; and `COc1ccc2ncc(F)c(C(O)CN3CCC(NCc4ccc5c(n4)NC(=O)CO5)CC3)c2c1` (stereo not given), with 0.88% and 2.65%.
Then `Cc1cc(N2CCCC2)nc(Nc2ccc(NC(=O)Cc3ccccc3)cc2)n1`, with 15.4%; and `COC(=O)C(C)(C)Cc1c(SC(C)(C)C)c2cc(C(C)C)ccc2n1Cc1ccc(Cl)cc1`, with -0%; and `Cc1nc(-c2cccc(Nc3ccnc4cc(-c5nccs5)ccc34)c2)no1`, with 10.7%.
As for `CS(=O)(=O)c1ccc(CNCc2ccc(-c3cccc(-c4nc5cc(F)ccc5[nH]4)c3)cc2)cc1`, the figure is 6.6%.
As for `c1ccc2c(CNCCCCCCNCc3c(OCC4CC4)ccc4ccccc34)c(OCC3CC3)ccc2c1`, the IFI came out at 18.7%.
Then `CCOC(=O)c1c(C)n(-c2ccccc2)c2ccc(OC(=O)c3ccc(S(=O)(=O)N(CC)CC)cc3)cc12`, with 2.94%; and `O=C(NCCCCCN1CCC(c2c[nH]c3ccccc23)CC1)Nc1cccc(Br)c1`, with 4.23%; and `O=c1ccc(CNc2nc(NCCc3ccccc3)nc3ccc(Cl)cc23)c[nH]1`, with 0%.
As for `CC[C@H](C)CNC(=O)c1ccnc(-c2ccc(CNCCCc3ccccc3)cc2)c1`, the figure is 8.06%; as for `Fc1ccc2c(NN=Cc3ccccc3F)ccnc2c1`, 2.17%; as for `O=c1c2ccc(F)cc2sn1-c1ccc(Cl)cc1`, 23.9%.
As for `COc1ccccc1C1CCN(C2CCC(NC(=O)/C=C/c3ccc(OC(F)(F)F)cc3)CC2)CC1` (stereo not given), the figure is 11.7%; as for `CN(Cc1ccc(-c2ccc(C(F)(F)F)cc2)cc1)C(=O)Cn1c(CCc2cccc(F)c2F)nc(=O)c2ccc(N3CCN(CCN4CCCCC4)CC3)nc21`, 15.8%.
`COc1ccc2nccc([C@@H](O)CN3CCC(NC(=O)c4ccc(Cl)c(OC)c4)CC3)c2c1`: the IFI is 1.48%.
Then `N#Cc1ccc2c(c1)CN(C1CCC(NC(=O)c3cc(-c4ccc(Cl)cc4)cs3)CC1)CCC2` (stereo not given), with 8.2%.
In turn, `COC(=O)Cc1ccc(N)c2ccccc12` registered an IFI of 3.82%.
As for `COc1ccccc1CCNc1ncnc2c1[nH]c1ccc(F)cc12`, the figure is 20.5%.
In the case of `O=C1OC(c2ccccc2)(c2ccccc2)CN1C1CCN(Cc2ccc(O)c(Cl)c2)C1` (stereo not given), the IFI is 9.7%.
Then `O=C(NCCc1ccccc1)N(Cc1ccccc1-c1cccc(CNCc2ccc3c(c2)OCO3)c1)C1CCN(Cc2ccccc2)CC1`, with 8.63%; and `COc1cc(NC2=NS(=O)(=O)c3cc(Cl)ccc3N2C)cc(OC)c1OC`, with -0%; and `COc1ccc(Cn2ccc3c4c(N)nc(N)nc4ccc32)cc1`, with 12.3%.
As for `CCOc1ccc(C(=O)N2CCOC(CCN3CCC4(CCc5ccccc54)CC3)(c3ccc(Cl)c(Cl)c3)C2)cc1` (stereo not given), the figure is 6.9%; as for `CC(=O)N1c2ccccc2C(C)=CC1(C)C`, 0.71%; as for `CC(=O)NCCNCc1cccc(C(=O)NCc2cccc(C(F)(F)F)c2)c1`, -0%.
Then `CNCCCn1c(N(C)C)nc2cc(-n3cnc4cc(-c5ccc(Cl)cc5)sc4c3=O)ccc21`, with 8.89%.

Values taken from ChEMBL document CHEMBL1157539, “Thousands of chemical starting points for antimalarial lead identification” (Nature, 2010).
